Measured values as given in PubChem BioAssay AID488969 (Vanderbilt High Throughput Screening Facility, 2010).
Whole data set: some 110,000 compounds, median “z-score” near -0.1, cut for the highest 2% near 2. This is one part of the list. Activity calls are given as the source filed them.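 How the source made its calls: active means z-score in the third read window above 3 or below -3; inactive means the rest.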 Non-standard residues stand in square brackets, D forms with d. Residues, ends and D or L forms follow the SMILES beside them. ξ: configuration not given here. *: point of attachment. Boc = CC(C)(C)OC(=O)*; ξP = O=C(O)C1CCCN1

Each compound was assayed against Metabotropic glutamate receptor 8 (Rattus norvegicus) (UniProt P70579) (assay: mGluR8 Gi/Go-coupled signaling modulation – cell-based, rat, thallium flux, HTS, primary screen (AID 488969)). Details: HEK293 rat mGluR8, GIRK (G protein-gated inwardly rectifying potassium channel) thallium flux, FluoZin2; at 10 µM; stronger effect = higher value; submaximal glutamate (EC20) added with thallium.
UniProt P70579, sequence (P70579 whole entry, looked up): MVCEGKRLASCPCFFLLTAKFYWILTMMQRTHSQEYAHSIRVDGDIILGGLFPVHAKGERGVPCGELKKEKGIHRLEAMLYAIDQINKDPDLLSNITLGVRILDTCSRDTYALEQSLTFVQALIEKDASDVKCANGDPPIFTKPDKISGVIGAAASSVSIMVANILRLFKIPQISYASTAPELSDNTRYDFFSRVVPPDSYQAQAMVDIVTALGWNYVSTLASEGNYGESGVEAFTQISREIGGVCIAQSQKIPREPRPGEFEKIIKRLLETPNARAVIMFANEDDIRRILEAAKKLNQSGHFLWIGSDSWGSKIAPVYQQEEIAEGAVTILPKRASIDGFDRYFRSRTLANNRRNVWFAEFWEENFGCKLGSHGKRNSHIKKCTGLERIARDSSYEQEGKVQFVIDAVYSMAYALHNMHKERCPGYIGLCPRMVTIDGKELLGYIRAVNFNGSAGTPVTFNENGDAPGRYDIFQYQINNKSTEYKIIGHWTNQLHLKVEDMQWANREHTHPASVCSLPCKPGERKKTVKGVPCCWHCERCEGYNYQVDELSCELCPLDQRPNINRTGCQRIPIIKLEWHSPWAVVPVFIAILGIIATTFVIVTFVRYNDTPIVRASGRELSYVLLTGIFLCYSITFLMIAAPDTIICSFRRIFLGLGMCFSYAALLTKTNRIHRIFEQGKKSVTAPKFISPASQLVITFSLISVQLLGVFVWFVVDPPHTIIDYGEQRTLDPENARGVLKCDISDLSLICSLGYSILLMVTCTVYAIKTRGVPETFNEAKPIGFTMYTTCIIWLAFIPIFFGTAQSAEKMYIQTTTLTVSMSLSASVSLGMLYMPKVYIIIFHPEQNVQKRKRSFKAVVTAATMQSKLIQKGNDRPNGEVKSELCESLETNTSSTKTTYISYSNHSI
`CCOC(=O)NCC(C#CCN(CC)CC)N(CC)CC` (stereo not drawn) was tested, and the z-score was -0.109. `COc1ccc(-n2c(-c3cccc(C)c3[N+](=O)[O-])n[nH]c2=S)cc1` was tested, and the z-score was -0.217. With `Cc1ccc(OCC(=O)NC(=S)Nc2ccc(Br)c(C)n2)cc1` the z-score was 1.02. With `CC/C(=N\NC(=S)Nc1ccc(OC)cc1)c1ccc(OC(F)F)cc1` the z-score was active: 7.5. `CCN(CC)S(=O)(=O)c1ccc(N2CCOCC2)c(NC(=O)c2c3c(nc4ccccc24)CCC3)c1` was tested, and the z-score was -0.0797. In the case of `CC(C#N)On1c(SC(C)C#N)nc2ccccc2c1=O` (stereo not drawn), the z-score is reported as -0.416. For `O=C(CN1C2=NCCN2c2ccccc21)N1CCOCC1`, the z-score was 0.0491. `CS(=O)(=O)N1CCN(C(=O)NC23CC4CC(CC(C4)C2)C3)CC1` gave a z-score of 0.72. In the case of `Cc1cc(C)c(S(=O)(=O)Nc2ccc[nH]c2=O)c(C)c1`, the z-score is reported as 0.21. `Cc1c(NC(=O)/C(C#N)=C/C2CC=CCC2)c(=O)n(-c2ccccc2)n1C` (stereo not drawn) showed a z-score of -0.166. For `CCOc1ccccc1C(=O)N1CCN(c2cccc(Cl)c2)CC1`, the z-score was 0.326. In the case of `COc1ccc(OC)c(/C=C/C(=O)c2ccc(Cl)cc2)c1`, the z-score is reported as -0.0712. In the case of `Cc1nc(SCC(=O)c2ccc(Cl)cc2)c([N+](=O)[O-])[nH]1`, the z-score is reported as -0.477. For `CC12CN(S(=O)(=O)c3ccccc3)CC(C)(CN(S(=O)(=O)c3ccccc3)C1)C2`, the z-score was -0.114. With `Cc1nnc(NC(=O)c2ccncc2)s1` the z-score was -0.232. In the case of `Cc1c(C(=O)Nc2ccc(-c3nnc4n3CCCCC4)cc2)oc2c1ccc1ccccc12`, the z-score is reported as -0.227. `O=C1CC(c2ccc(S(=O)(=O)NCc3ccccc3)cc2)CN1` (stereo not drawn) gave a z-score of -0.121. For `Cc1nc(NCc2ccccc2)[nH]c(=O)c1CCC(C)C`, the z-score was -0.321. `O=C1CC(c2ccccc2)n2nc(N3C(=O)CCC3=O)nc2N1` (stereo not drawn) was tested, and the z-score was 0.146. With `CCOc1ncccc1C(=O)OCc1ccccc1` the z-score was -0.268. `CCOC(=O)CSc1nnc2cc(C)c3ccccc3n12` showed a z-score of -1.09. `CCOC(=O)c1cc(C(O)(C(F)(F)F)C(F)(F)F)c(/N=C/N(C)C)o1` gave a z-score of -0.281. Work on `O=C(CN1CCN(Cc2ccccc2)C1=O)NCc1ccc(Cl)cc1` yielded a z-score of -0.177. In the case of `CC(=O)C1=C(C)NC(SCC(=O)c2ccc(C)cc2)=C(C#N)C1c1ccco1` (stereo not drawn), the z-score is reported as -0.0288. `COc1ccc(-c2cc(C(=O)N3CCN(c4ccccc4)CC3)no2)cc1OC` was tested, and the z-score was -0.94. `Cc1cccc(N2CCN(C(=O)c3cc4c(=O)n(C)c5ccccc5c4n3C)CC2C)c1` (stereo not drawn) showed a z-score of -1.07. For `COc1ccccc1-c1nnc2sc(-c3cnccn3)nn12`, the z-score was -0.623. Work on `COC(=O)[C@H](Cc1ccccc1)NC(=O)NCC1CCCO1` (stereo partly drawn) yielded a z-score of -0.453. For `O=[N+]([O-])c1ccc2nc(/C=C/c3ccc(Cl)cc3)[nH]c2c1`, the z-score was -0.327. `Cc1c(NS(=O)(=O)c2ccc3c(c2)c(=O)n(C)c(=O)n3C)c(=O)n(-c2ccccc2)n1C` showed a z-score of -0.158. Work on `Cc1ccc(S(=O)(=O)N2CCN(CC(=O)N/N=C/C=C/c3ccccc3)CC2)cc1` yielded a z-score of 0.941. Work on `CC(C)Nc1nc(N(c2ccccc2)c2ccccc2)nc(-n2ccnc2)n1` yielded a z-score of -0.425. Compound `CCCn1nnnc1SCC(=O)N1CCCc2ccccc21` has a z-score of -0.102. For `Cc1noc(C)c1C(=O)NCCc1ccc(Cl)cc1`, the z-score was -0.377. `COc1ccc(C(=O)N(Cc2nc(-c3ccc(C)cc3)no2)C(C)C)cc1OC` showed a z-score of -0.736. For `COc1ccc(N(Cc2cc3cc(OC)ccc3[nH]c2=O)C(=O)c2cccnc2)cc1`, the z-score was -0.168. Work on `COc1ccc(C2(O)CCN(Cc3nnnn3Cc3ccc(C)cc3)CC2)cc1` yielded a z-score of 0.0757. `CCC(NC(=O)c1ccccc1NC(=O)c1ccco1)C(=O)NNC(=O)c1ccc(OC)cc1` (stereo not drawn) showed a z-score of -0.125. `COc1ccc(C2CC(c3ccccc3)=NN2C(=O)COC(=O)C2CC2)cc1` (stereo not drawn) gave a z-score of -0.418. In the case of `COc1ccc(Oc2ccc(N/C=C3\CCCC3=O)cc2)cc1`, the z-score is reported as -0.269. For `CCCN(CCC)CCCNC(=O)CS(=O)Cc1nc(-c2ccc(OC)c(OC)c2)oc1C` (stereo not drawn), the z-score was -0.1. For `Cc1ccc(S(=O)(=O)NCC(=O)OCC(=O)c2ccc(Br)s2)cc1`, the z-score was -0.0701. For `Cc1cc(N/N=C(/CCC(=O)O)C(=O)O)nc2ccccc12`, the z-score was -0.145. `CCOC(=O)N1CCN(C(=O)CSc2nnc(-c3cccc(OC)c3)o2)CC1` was tested, and the z-score was -0.788. In the case of `COc1ccc(NC(=O)CSc2nnc(Cc3cccs3)n2-c2ccc(C)cc2)cc1`, the z-score is reported as -0.131. `CCOC(=O)c1[nH]c2ccc(OC)cc2c1NC(=S)N1CCN(c2cccc(C)c2C)CC1` was tested, and the z-score was -0.0911. Work on `Cc1cccc(-n2c(SCCC(=O)O)nnc2-c2cccs2)c1C` yielded a z-score of -2.58. Compound `Cc1sc2nc(SCC(=O)NCc3ccco3)n(CCc3ccccc3)c(=O)c2c1C` has a z-score of 0.83. Compound `CCC(C)NC(=O)CN(c1cc(Cl)ccc1OC)S(C)(=O)=O` (stereo not drawn) has a z-score of -0.17. In the case of `CCCCCn1cnc2sc(-c3ccccc3)cc2c1=O`, the z-score is reported as -0.142. Work on `Cc1ccccc1-n1cc(C(=O)c2cc(Cl)ccc2O)cc(C#N)c1=O` yielded a z-score of -0.448. `CCOc1ccc(Br)cc1S(=O)(=O)Nc1ccc(NC(=O)c2ccccc2F)cc1` gave a z-score of -0.316. In the case of `COc1cc(C(=O)Nc2nccs2)cc(OC)c1OC`, the z-score is reported as -0.53. With `CN(Cc1nc(-c2ccncc2)no1)S(=O)(=O)c1ccccc1` the z-score was 0.00952. For `CN1CCCC(OC(=O)CCCCC(=O)OC2CCCN(C)C2)C1` (stereo not drawn), the z-score was -0.765. `COc1ccc(/C(N)=N/OC(=O)C2CCC(=O)N2S(=O)(=O)c2ccc(C)cc2)cc1OC` (stereo not drawn) gave a z-score of -0.516. For `CC/C(=C/c1sc2ccccc2[n+]1CC)SC`, the z-score was -0.291. Work on `CCOCCCn1c(-c2ccc(Cl)cc2)n[nH]c1=S` yielded a z-score of -0.227. With `COC(=O)Nc1ncc(CN2C(=O)c3ccccc3C2=O)s1` the z-score was 0.027. For `COc1ccc(C(=O)NCc2ccc(-c3nc4ccccc4s3)cc2)cc1OC`, the z-score was -0.436. `CN1CCN(C(=O)C2CC(c3c(F)cccc3Cl)=NO2)CC1` (stereo not drawn) showed a z-score of 0.348. With `CCS(=O)(=O)N1CCCC(C(=O)NCc2cccc(OC)c2)C1` (stereo not drawn) the z-score was -0.018. In the case of `O=C(NC1CCCC1)C1CC(=O)N(CCc2ccccc2)C1` (stereo not drawn), the z-score is reported as -1.38. For `NC(=O)C1CCN(CC(=O)Nc2cccc(C(=O)Nc3cccc(C(F)(F)F)c3)c2)CC1`, the z-score was -0.137. In the case of `COc1cc(/C=N/NC(=O)c2cnn3c(C)cc(-c4ccccc4)nc23)ccc1O`, the z-score is reported as -0.354. `COc1ccc(NC(=O)CN(c2cccc(F)c2)S(C)(=O)=O)cc1OC` was tested, and the z-score was 0.437. With `COC(=O)CNC(=O)C1CCCN1C(=O)OC(C)(C)C` (stereo not drawn) (Boc-[ξP]-Gly-OMe) the z-score was -0.536. Work on `CC1(C)C2([N+](=O)[O-])CN3CC1([N+](=O)[O-])CN(C2)C3c1ccccc1` (stereo not drawn) yielded a z-score of -0.289.
